Some of the results follow. The main result of the screen is listed elsewhere. These columns were measured beside it and carry no call. Compounds called inactive in the main read-out are mostly missing here.

This assay can be described thus: growth inhibition of WT strain, primary screen, mitochondrial fusion inhibitor project, WT and mutant strains, chemical genetic (AID 1362). Note: tested in S. cerevisiae. As to conditions: mitochondrial fusion phenotypic screen, at 10 µM.
In the case of `CCCCCOc1ccc(CSC(=N)N)cc1[N+](=O)[O-]`, the inhibition (usually the change of the read-out against control, counted positive when it falls) turned out to be 59.4%.

As for `COc1ccc(C(=O)N2c3cc4c(cc3C(C)=CC2(C)C)OCO4)cc1`, the inhibition was 18.5%.

For `Cc1ccc(C(NC(=O)NC(C)c2ccccc2)C(Cl)(Cl)Cl)cc1F` (centres undefined), the inhibition was found to be 0.88%.

In the case of `Cc1cccc(N(CC(O)CON=C2c3ccccc3-c3ccccc32)S(C)(=O)=O)c1` (centres undefined), the inhibition came out at 20.4%.

As for `O=C(CN1CCc2ccccc2C1)Nc1ccccc1N1CCCCCC1`, the inhibition is 0.61%.

`CCOC(=O)c1cc([N+](=O)[O-])c([N+](=O)[O-])cc1NC(C)=O`: the inhibition is 75.2%.

Turning to `CCC(C)Nc1c([N+](=O)[O-])cc(C)cc1[N+](=O)[O-]` (centres undefined), the inhibition stood at 7.39%.

For the compound `O=C(Nc1ccc(OC(F)(F)F)cc1)Nc1cccc([N+](=O)[O-])c1`, the inhibition is 77.7%.

Turning to `Cc1cccc(Nc2nc(N)c([N+](=O)[O-])c(N3CCCC(C)C3)n2)c1` (centres undefined), the inhibition worked out at 64.1%.

Take `CCC(C)n1c(SCc2ccccc2)nc2ccsc2c1=O` (centres undefined): the inhibition worked out at 12.9%.

Regarding `COC(=O)COC(=O)c1ccccc1NC(=O)c1ccccc1`, the inhibition was determined as 70.3%.

For `CO/N=C(\Cn1ncc(NC2CCCCC2)c(Br)c1=O)c1ccc(Cl)cc1`, the inhibition is 37.8%.

Consider `COc1ccc(C2CC(c3ccccc3)=NN2C(=O)COC(=O)C2(C)CC2(Cl)Cl)cc1` (centres undefined), for which the inhibition was 52.4%.

On to `CCOC(=O)C1=C(C)n2c(s/c(=C/c3cccc([N+](=O)[O-])c3)c2=O)=NC1c1ccc(O)c(OC)c1` (centres undefined), for which the inhibition amounted to 21.3%.

Regarding `c1ccc2c(c1)nc(CN1CCOCC1)n1c3ccccc3nc21`, the inhibition was determined as 0.47%.

`O=C(Nc1ccc(OCC(F)(F)C(F)F)c(C(F)(F)F)c1)c1ccccc1O`: the inhibition came to 70.8%.

For the compound `Cc1c(C(=O)NCCSCc2ccc(Cl)cc2Cl)cccc1[N+](=O)[O-]`, the inhibition came out at 36.1%.

Turning to `CCO[C@H]1OC(C(=O)Nc2ccccc2)=C[C@@H](c2csc3ccccc23)[C@@H]1CCCO`, the inhibition stood at 22.4%.

On to `Cc1ccccc1Nc1nc(NCc2ccco2)c2ccccc2n1`, for which the inhibition came to 78.5%.

Regarding `CCOc1cc(S(=O)(=O)Nc2ccccc2CC)ccc1Cl`, the inhibition turned out to be 41.5%.

Turning to `O=C(Cn1c(/C=C/c2ccccc2)nc2ccccc21)Nc1ccc(F)cc1`, the inhibition came out at 53.9%.

As to `Fc1ccccc1NC(=S)Nc1ccc(Br)cc1`, the inhibition is 39.1%.

Take `O=C(CCN1C(=O)/C(=C\c2cccs2)SC1=S)NC1=NCCS1`: the inhibition amounted to 22.3%.

On to `O=C(CSc1nnc(-c2c[nH]c3ccccc23)o1)N(Cc1ccccc1)c1ccc(F)cc1`, for which the inhibition is 17.4%.

Regarding `NC(=O)c1ccc(NC(=O)CCCN2C(=O)c3ccccc3C2=O)cc1`, the inhibition was -0.3%.

On to `O=C(COC(=O)c1ccncc1)Nc1cc(Cl)c(Cl)cc1Cl`, for which the inhibition was -34.9%.

In the case of `Cc1ccc(N(CC(O)Cn2c3ccccc3c3ccccc32)S(C)(=O)=O)c(C)c1` (centres undefined), the inhibition worked out at 9.88%.

Regarding `O=C(Oc1c(Cl)cc(Cl)c2cccnc12)c1cccs1`, the inhibition was found to be 57.7%.

Turning to `CC1CC(C)(C)Nc2ccc(N=O)cc21` (centres undefined), the inhibition came out at 46.3%.

Regarding `CCOC(=O)c1c(NC(=O)C2CCN(S(=O)(=O)c3cccs3)CC2)sc(C)c1C`, the inhibition was 12.4%.

Turning to `CC1CCN(C(=O)CCc2ccc(Oc3cc([N+](=O)[O-])cc([N+](=O)[O-])c3)cc2)CC1`, the inhibition turned out to be 27.1%.

In the case of `NS(=O)(=O)c1ccc(N2N=C(c3ccc(Br)cc3)CC2c2ccc(F)cc2)cc1` (centres undefined), the inhibition worked out at 59.1%.

In the case of `Cc1nc2ccccc2n1/N=C/c1ccc([N+](=O)[O-])s1`, the inhibition is 41.6%.

Take `O=C(Nc1ccc(Oc2cccc3ccccc23)cc1)c1ccco1`: the inhibition is 67.9%.

On to `O=c1[nH]c(=O)n(Cc2ccco2)c2c1C(C(F)(F)F)(C(F)(F)F)N=C(Cc1ccccc1)N2`, for which the inhibition was 8.48%.

In the case of `C/C(=N\Nc1nc(N2CCCCCC2)nc(N2CCCCCC2)n1)c1ccccc1`, the inhibition came out at 5.82%.

For the compound `Cn1c(-c2c(N)n(-c3ccccc3)c3nc4ccccc4nc23)nc2ccccc21`, the inhibition was found to be 41%.

Regarding `Cc1cccc(N2CCN(Cc3nc(-c4cccc(Cl)c4)oc3C)CC2)n1`, the inhibition was 46.6%.

With `O=S(=O)(NC1CCCCC1Oc1ccccc1)c1ccc(Cl)cc1` (centres undefined), the inhibition came to 14.5%.

Consider `Cc1ccccc1N=Nc1c(C)[nH]n(C(N)=S)c1=O`, for which the inhibition worked out at 57.4%.

Consider `Clc1cccc(COn2c(-c3ccc(Cl)cc3Cl)nc3ncccc32)c1`, for which the inhibition is 42.3%.

On to `Cc1cc(CN2CCN(CCC#N)CC2)c(O)c(C2(C)CCCCC2)c1`, for which the inhibition was determined as 43.1%.

As for `CCOc1ccc(NC(=S)N(Cc2ccc(N(C)C)cc2)Cc2ccco2)cc1`, the inhibition came out at 16.8%.

As for `CNC(=S)Nc1ccc(C23CC4CC(CC(C4)C2)C3)cc1`, the inhibition turned out to be 48.3%.

Turning to `Cc1c(Cl)cccc1NC(=O)c1nc(C)n(-c2cc(OC(C)C)c(Cl)cc2Cl)n1`, the inhibition came out at 55.2%.

As to `CC(C)(C)c1ccc(C(O)CCCN2CCC(C(O)(c3ccccc3)c3ccccc3)CC2)cc1` (centres undefined), the inhibition came out at 77.7%.

Consider `CSc1ccccc1NC(=S)N/N=C/c1cccn1Cc1ccc(F)cc1`, for which the inhibition amounted to 43.9%.

In the case of `CCOC(=O)C1CCN(c2c(C(=O)c3ccccc3)cnc3ccc(CC)cc23)CC1`, the inhibition is 72.2%.

Consider `COc1cc(OC)nc(Oc2ccccc2C(=O)Oc2ccc(F)cc2Cl)n1`, for which the inhibition was 29%.

Turning to `CC(C)/C(=N/Nc1ccccc1[N+](=O)[O-])c1ccccc1`, the inhibition is 0.75%.

For the compound `Cc1ccc(CSc2nnc3c(n2)OC2(Nc4ccccc4-3)C(=O)Nc3ccc(F)cc32)cc1` (centres undefined), the inhibition is 45.4%.

Regarding `O=S(Cc1cc(Sc2ccccc2)nc(-c2ccccc2)n1)c1ccccc1` (centres undefined), the inhibition is 33.1%.

With `CCN1C(c2ccccc2)C(C)C(=O)C(C)C1c1ccccc1` (centres undefined), the inhibition turned out to be 52.6%.

Turning to `CCOc1cc(CNC(C)(C)CO)cc(Br)c1OCc1ccc(Cl)cc1Cl`, the inhibition came out at 85.3%.

Take `COc1ccc(-c2nc(C)ncc2N=Nc2ccccc2)cc1`: the inhibition turned out to be 8.31%.

As to `CCN(Cc1ccccc1)C(c1ccc(C(F)(F)F)cc1)c1nnnn1C(C)(C)C` (centres undefined), the inhibition was -0.15%.

For the compound `Cc1cccc(OCCCC(=O)Nc2ccc3c(c2)OCO3)c1`, the inhibition is 0.74%.

Turning to `COc1ccc(CNC(=O)[C@H](C)[C@@H]2C[C@@]2(C)[C@@H](NC(=O)OCc2ccccc2)c2ccccc2)cc1OC`, the inhibition amounted to 10.1%.

For `Cc1cccc(C(=O)NC(NCCc2ccccc2)C(Cl)(Cl)Cl)c1` (centres undefined), the inhibition was determined as 23.8%.

As for `O=C(NCCOc1ccc(Cl)cc1)c1ccc2ccccc2n1`, the inhibition was 36.5%.

With `Cc1ccc(-n2cc(CN(C)Cc3nccn3C)c(-c3ccc(F)cc3)n2)cc1`, the inhibition came to 72.5%.

As for `Cc1cc(C)c(C(=O)Nc2ccc(Br)c(C(F)(F)F)c2)c(C)c1`, the inhibition was determined as 78.1%.

Turning to `CCCCNC(=S)N/N=C/c1cc(C)ccc1C`, the inhibition was found to be 18.3%.

As to `CCc1ccc(-c2nc(CN3CCC(C(=O)NCCN(CC)c4ccccc4)CC3)c(C)o2)cc1`, the inhibition is 57.5%.

In the case of `CCOc1cc(/C=N/NC(=O)COc2ccccc2C)ccc1OC(=O)c1cccs1`, the inhibition was 46.8%.

For the compound `O=C(CN1CCN(c2ccccn2)CC1)N(c1ccccc1)c1ccc2ccccc2c1`, the inhibition is -15.9%.

With `O=c1cc(CN2CCN(C/C=C/c3ccccc3)CC2)c2cc(O)c(-c3ccccc3)cc2o1`, the inhibition was 34.7%.

`COc1ccc(-c2cc(C3CCN(c4cc(Cl)nc(N)n4)CC3)[nH]n2)cc1`: the inhibition was determined as 26.8%.

On to `COC(=O)c1cn(C(=O)c2ccc(C)cc2C)c2ccccc12`, for which the inhibition stood at 56.1%.

In the case of `Cc1cc(Br)ccc1NC(=O)CN1C(=O)C2C3CC(c4ccccc4)C(C3)C2C1=O` (centres undefined), the inhibition was -4.2%.

With `COc1ccccc1Cn1c(-c2ccccc2OC)nc2ccccc21`, the inhibition amounted to 46.9%.

In the case of `O=C(CSc1nc2ccccc2o1)Nc1nc(-c2ccccc2)cs1`, the inhibition was determined as 45.4%.

Consider `Cc1ccc(Sc2c(C)nn(C(=O)C3CC3)c2C)cc1`, for which the inhibition is 38.5%.

With `COc1ccc(C=O)cc1CSc1nnc(COc2cccc3cccnc23)o1`, the inhibition stood at 40.3%.

With `Cc1cc(N2CCCCC2)nc(-c2ccc(Br)cc2)n1`, the inhibition was 59%.

Regarding `Cc1ccccc1NC1=C(Cl)C(=O)N(C2CCCCC2)C1=O`, the inhibition is 6.47%.

On to `C(=N\Nc1nc(N2CCCCCC2)nc(N2CCCCCC2)n1)/c1ccccc1`, for which the inhibition came out at 10.4%.

As to `Cc1ccc(-c2csc3ncnc(SCc4ccc(C(=O)O)cc4)c23)cc1`, the inhibition came out at 45.5%.

With `CCOC(=O)c1c(C)[nH]c(C)c1C(=O)CSc1nnc(-c2ccncc2)n1C`, the inhibition is -4.19%.

Regarding `CC1(C)CC(=O)C2=C(C1)N=c1s/c(=C/c3ccc(F)c(F)c3)c(=O)n1C2c1ccc(F)cc1` (centres undefined), the inhibition amounted to 33.3%.

With `O=[N+]([O-])c1ccc2nc(-c3ccc(Cl)cc3)[nH]c2c1`, the inhibition was determined as 53.2%.

Consider `O=C(NCc1ccc2c(c1)OCO2)c1ccc(COc2cccc(Cl)c2)o1`, for which the inhibition came to 30.7%.

Turning to `Cc1ccc(SCc2cn3c(C)csc3n2)cc1`, the inhibition stood at 58.5%.

Consider `COC(=O)Cc1cn(-c2ncc(C(F)(F)F)cc2Cl)c2ccccc12`, for which the inhibition is 82.1%.

With `C=CCn1c(SCC(=O)Nc2ccc3c(c2)CCC3)nnc1-c1cccs1`, the inhibition was determined as 9.53%.

Consider `CC1=NN(c2ccc(Cl)cc2)C(=O)/C1=C\c1cccn1-c1ccc(S(N)(=O)=O)cc1`, for which the inhibition worked out at 65.4%.

Consider `O=C1CC(SCc2nc3ccccc3[nH]2)C(=O)N1c1cccc(F)c1` (centres undefined), for which the inhibition was determined as 13.3%.

For `O=C(Nc1ccccc1)Nc1ncc([N+](=O)[O-])s1`, the inhibition was found to be 58.7%.

Take `COc1c(OC(C)=O)ccc(/C=C/c2ccc3ccccc3n2)c1[N+](=O)[O-]`: the inhibition is 42%.

`NC(=O)COC(=O)c1ccc(Cl)c(S(=O)(=O)N(Cc2ccccc2)c2ccc(Cl)cc2)c1`: the inhibition was 12.2%.

As for `CSc1ccccc1NC(=S)N/N=C/c1cccn1Cc1cccc(C)c1`, the inhibition was 18.7%.

In the case of `O=S(=O)(Nc1ccc(-c2csc(-c3ccccc3)n2)cc1)c1ccccc1`, the inhibition was found to be 60.7%.

Regarding `CC(C)(C)c1ccc(OCCCNCc2ccccc2)cc1`, the inhibition came out at 86.1%.

Consider `Cc1ccccc1OCC(=O)Nc1ccccc1N1CCC(C)CC1`, for which the inhibition worked out at 0.87%.

As for `COc1ccc(-n2cc(CNC3CCN(C)CC3)c(-c3cccc(F)c3)n2)cc1`, the inhibition came to 46.1%.

Consider `COc1cc(-c2nc(-c3cccc(C)c3)no2)cc(OC)c1OC`, for which the inhibition is 47.3%.

As for `Cc1ccc(CNc2oc(-c3ccco3)nc2S(=O)(=O)c2ccccc2)cc1`, the inhibition amounted to 48.1%.

Turning to `CN=c1scc(-c2ccccc2Br)n1/N=C/c1ccc[nH]1`, the inhibition was determined as 52.1%.

In the case of `CC(=O)Cc1nsc(NC(=O)c2ccc(-c3ccc(Cl)c(Cl)c3)o2)n1`, the inhibition is -29.1%.

On to `Nc1cc(N)nc(SCC(=O)N2CCc3ccccc32)n1`, for which the inhibition is 1.85%.

On to `CN1/C(=C\C(=O)Nc2ccc(F)cc2)C(C)(C)c2ccccc21`, for which the inhibition amounted to 26%.

Turning to `CCc1cccc(CC)c1NC(=S)NCCc1c(C)[nH]c2ccccc12`, the inhibition was -23.9%.

In the case of `COc1ccccc1/C=C/CN1CCCC(CO)(Cc2cccc(Cl)c2)C1` (centres undefined), the inhibition turned out to be 61.9%.

As to `Cc1ccc(-n2c(-c3ccccc3)cc(/C=N/NC(=O)CC#N)c2-c2ccccc2)cc1`, the inhibition worked out at 0.35%.

The values are drawn from PubChem BioAssay AID1362 (SRMLSC, 2008).
